The values that follow come from patent US20230365662A1.

B1: H8 K222A (antibody)
heavy: QVQLQESGPGLVKPSETLSLTCTVSGFSLSIYSVHWIRQPPGKGLEWIGMIWGGGSSDYNSALKSRLTISKDTSKNQVSLKLSSVTAADTAVYYCARNGNFYAMDYWGQGTLVTVSS[human IgG1 constant region with K222A (EU numbers) not shown]
light: EIVLTQSPGTLSLSPGERATLSCTASSSVSSSFLHWYQQKPGQAPQLWIYSTSNLASGIPARFSGSGSGTDYTLTISRLEPEDFATYYCHQYHHSPYIYTFGGGTKLEIKRTVAAPSVFIFPPSDEQLKSGTASVVCLLNNFYPREAKVQWKVDNALQSGNSQESVTEQDSKDSTYSLSSTLTLSKADYEKHKVYACEVTHQGLSSPVTKSFNRGEC
B2: H5 K222A (antibody)
heavy: QVQLQESGPGLVKPSETLSLTCTVSGFSLSIYSVHWIRQPPGKGLEWIGMIWGGGSSDYNSALKSRLTISKDTSKNQVSLKLSSVTAADTAVYYCARNGNFYAMDYWGQGTLVTVSS[human IgG1 constant region with K222A (EU numbers) not shown]
light: EIVLTQSPGTLSLSPGERATLSCTASSSVSSSFLHWYQQKPGQAPRLLIYSTSNLASGIPDRFSGSGSGTDFTLTISRLEPEDFAVYYCHQYHHSPYIYTFGGGTKLEIKRTVAAPSVFIFPPSDEQLKSGTASVVCLLNNFYPREAKVQWKVDNALQSGNSQESVTEQDSKDSTYSLSSTLTLSKADYEKHKVYACEVTHQGLSSPVTKSFNRGEC
B3: H14 K222A (antibody)
heavy: QVQLQESGPGLVKPSETLSLTCTVSGFSLSIYSVHWIRQPPGKGLEWLGMIWGGGSSDYNSALKSRLTISKDTSKNQVSLKLSSVTAADTAMYYCARNGNFYAMDYWGQGTLVTVSS[human IgG1 constant region with K222A (EU numbers) not shown]
light: EIVLTQSPGTLSLSPGERATLSCTASSSVSSSFLHWYQQKPGQAPQLWIYSTSNLASGIPDRFSGSGSGTDYTLTISRLEPEDFAVYYCHQYHHSPYIYTFGGGTKLEIKRTVAAPSVFIFPPSDEQLKSGTASVVCLLNNFYPREAKVQWKVDNALQSGNSQESVTEQDSKDSTYSLSSTLTLSKADYEKHKVYACEVTHQGLSSPVTKSFNRGEC
B4: H7 K222A (antibody)
heavy: QVQLQESGPGLVKPSETLSLTCTVSGFSLSIYSVHWIRQPPGKGLEWIGMIWGGGSSDYNSALKSRLTISKDTSKNQVSLKLSSVTAADTAVYYCARNGNFYAMDYWGQGTLVTVSS[human IgG1 constant region with K222A (EU numbers) not shown]
light: EIVLTQSPGTLSLSPGERATLSCTASSSVSSSFLHWYQQKPGQAPQLWIYSTSNLASGIPDRFSGSGSGTDYTLTISRLEPEDFATYYCHQYHHSPYIYTFGGGTKLEIKRTVAAPSVFIFPPSDEQLKSGTASVVCLLNNFYPREAKVQWKVDNALQSGNSQESVTEQDSKDSTYSLSSTLTLSKADYEKHKVYACEVTHQGLSSPVTKSFNRGEC

For the experiment, the target named is HRgpA-6H (Porphyromonas gingivalis). As to the kind of experiment: SPR; ligand HRgpA-6H, analyte antibody as the table prints. Background: Surface plasmon resonance follows binding to a sensor surface in real time, without labels.
One may read the Kd as a measure of binding affinity in units of concentration. Lower therefore signals tighter binding. A word on the koff: it is the rate constant with which the complex falls apart. Lower therefore signals a long-lived complex. The term kon denotes a measure of how fast the partners come together. Higher therefore signals fast association. B1 came in with a Kd of 0.57 nM, a koff of 3.3e-05 s⁻¹ and a kon of 58000 M⁻¹ s⁻¹.
Taken in the same sequence, the figures for B2 were 0.068 nM, 3.42e-06 s⁻¹ and 50200 M⁻¹ s⁻¹.
For B3 the same measures were 1.3 nM, 6.53e-05 s⁻¹ and 50100 M⁻¹ s⁻¹.
Taken in the same sequence, the figures for B4 were 0.795 nM, 4.36e-05 s⁻¹ and 54800 M⁻¹ s⁻¹.
